# This is one part of the list.
# Columns and labels:
# Test in all cases: glycan array binding signal (z-score within array); higher = stronger binding
# Settings in all cases: glycan notation: IUPAC condensed, linker removed
# [1] = target: Fuc(a1-2)Gal
# In short: (§1)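 The Consortium for Functional Glycomics database supplied 3228 glycan arrays, of which those lacking an available protein sequence were dropped. The binding signal, a within-array Z-score, was averaged across arrays of the same protein sequence and across linkers. Negative scores can be read as non-binding.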
# [2] = target: Fuc(a1-2)Gal(b1-3)GalNAc
# In short: as §1
# [3] = target: Fuc(a1-2)Gal(b1-3)GalNAc(b1-3)Gal
# In short: as §1
# [4] = target: Fuc(a1-2)Gal(b1-3)GalNAc(b1-3)Gal(a1-4)Gal(b1-4)Glc
# In short: as §1
# [5] = target: Fuc(a1-2)Gal(b1-3)GalNAc(b1-3)Gal(b1-4)Glc
# In short: as §1
# [6] = target: Fuc(a1-2)Gal(b1-3)GalNAc(b1-4)[Neu5Ac(a2-3)]Gal(b1-4)Glc
# In short: as §1
# [7] = target: Fuc(a1-2)Gal(b1-3)[Fuc(a1-4)]GlcNAc
# In short: as §1
# [8] = target: Fuc(a1-2)Gal(b1-4)Glc
# In short: as §1
# [9] = target: Fuc(a1-2)Gal(b1-4)Glc6S
# In short: as §1
# [10] = target: Fuc(a1-2)Gal(b1-4)GlcNAc
# In short: as §1
# [11] = target: Fuc(a1-2)Gal(b1-4)GlcNAc(b1-3)Gal(b1-4)GlcNAc
# In short: as §1
# [12] = target: Fuc(a1-2)Gal(b1-4)GlcNAc(b1-3)Gal(b1-4)GlcNAc(b1-3)Gal(b1-4)GlcNAc
# In short: as §1
# [13] = target: Fuc(a1-2)Gal(b1-4)GlcNAc6S
# In short: as §1
# [14] = target: Fuc(a1-2)Gal(b1-4)[Fuc(a1-3)]GalNAc(b1-3)Gal(b1-4)[Fuc(a1-3)]GlcNAc
# In short: as §1
# [15] = target: Fuc(a1-2)Gal(b1-4)[Fuc(a1-3)]GalNAc(b1-3)Gal(b1-4)[Fuc(a1-3)]GlcNAc(b1-3)Gal(b1-4)[Fuc(a1-3)]GalNAc
# In short: as §1
# [16] = target: Fuc(a1-2)Gal(b1-4)[Fuc(a1-3)]GlcNAc
# In short: as §1
# [17] = target: Fuc(a1-2)Gal6S(b1-4)Glc
# In short: as §1
# [18] = target: Fuc(a1-2)Gal6S(b1-4)Glc6S
# In short: as §1
# [19] = target: Fuc(a1-2)Gal6S(b1-4)GlcNAc
# In short: as §1
# [20] = target: Fuc(a1-2)GlcNAc
# In short: as §1
# [21] = target: Fuc(a1-2)[Gal(a1-3)]Gal
# In short: as §1
# [22] = target: Fuc(a1-2)[Gal(a1-3)]Gal(b1-3)GlcNAc
# In short: as §1
# [23] = target: Fuc(a1-2)[Gal(a1-3)]Gal(b1-4)Glc
# In short: as §1
# [24] = target: Fuc(a1-2)[Gal(a1-3)]Gal(b1-4)GlcNAc
# In short: as §1
# [25] = target: Fuc(a1-2)[Gal(a1-3)]Gal(b1-4)[Fuc(a1-3)]GlcNAc
# In short: as §1
# [26] = target: Fuc(a1-2)[Gal(a1-4)]Gal(b1-4)GalNAc
# In short: as §1
# [27] = target: Fuc(a1-2)[GalNAc(a1-3)]Gal
# In short: as §1
# [28] = target: Fuc(a1-2)[GalNAc(a1-3)]Gal(b1-3)GlcNAc
# In short: as §1
# [29] = target: Fuc(a1-2)[GalNAc(a1-3)]Gal(b1-4)Glc
# In short: as §1
# [30] = target: Fuc(a1-2)[GalNAc(a1-3)]Gal(b1-4)GlcNAc
# In short: as §1
# [31] = target: Fuc(a1-2)[GalNAc(a1-3)]Gal(b1-4)[Fuc(a1-3)]GlcNAc
# In short: as §1
# [32] = target: Fuc(a1-2)[GalNAc(a1-4)]Gal(b1-4)GlcNAc
# In short: as §1
# [33] = target: Fuc(a1-3)GlcNAc
# In short: as §1
# [34] = target: Fuc(a1-3)[Gal(b1-4)]Glc6S
# In short: as §1
# [35] = target: Fuc(a1-3)[Gal(b1-4)]GlcNAc
# In short: as §1
# [36] = target: Fuc(a1-3)[Gal(b1-4)]GlcNAc(b1-3)Gal(b1-3)[Fuc(a1-4)]GlcNAc
# In short: as §1
# [37] = target: Fuc(a1-3)[Gal(b1-4)]GlcNAc(b1-4)Gal(b1-4)[Fuc(a1-3)]GlcNAc
# In short: as §1
# [38] = target: Fuc(a1-3)[Gal(b1-4)]GlcNAc(b1-4)Gal(b1-4)[Fuc(a1-3)]GlcNAc(b1-4)Gal(b1-4)[Fuc(a1-3)]GlcNAc
# In short: as §1
# [39] = target: Fuc(a1-3)[Gal(b1-4)]GlcNAc6S
# In short: as §1
# [40] = target: Fuc(a1-3)[Gal3S(b1-4)]Glc
# In short: as §1
# [41] = target: Fuc(a1-3)[Gal3S(b1-4)]Glc6S
# In short: as §1
# [42] = target: Fuc(a1-3)[Gal3S(b1-4)]GlcNAc
# In short: as §1
# [43] = target: Fuc(a1-3)[Gal3S(b1-4)]GlcNAc6S
# In short: as §1
# [44] = target: Fuc(a1-3)[GalNAc(b1-4)]Gal(b1-4)GlcNAc
# In short: as §1
# [45] = target: Fuc(a1-4)GlcNAc
# In short: as §1
# [46] = target: Fuc(b1-3)GlcNAc
# In short: as §1
# [47] = target: Gal(a1-2)Gal
# In short: as §1
# [48] = target: Gal(a1-3)Gal
# In short: as §1
# [49] = target: Gal(a1-3)Gal(b1-3)Glc
# In short: as §1
# [50] = target: Gal(a1-3)Gal(b1-3)GlcNAc
# In short: as §1
# [51] = target: Gal(a1-3)Gal(b1-4)GlcNAc
# In short: as §1
# [52] = target: Gal(a1-3)Gal(b1-4)[Fuc(a1-3)]GalNAc
# In short: as §1
# [53] = target: Gal(a1-3)GlcNAc
# In short: as §1
# [54] = target: Gal(a1-3)[Gal(a1-4)]Gal(b1-4)GlcNAc
# In short: as §1
# [55] = target: Gal(a1-4)Gal(b1-4)Gal
# In short: as §1
# [56] = target: Gal(a1-4)Gal(b1-4)GalNAc
# In short: as §1
# [57] = target: Gal(a1-4)GlcNAc
# In short: as §1
# [58] = target: Gal(a1-6)Glc
# In short: as §1
# [59] = target: Gal(b1-2)Gal
# In short: as §1
# [60] = target: Gal(b1-3)Gal
# In short: as §1
binder,measurement,setting,value
"PEB3 Cj0289c (Campylobacter jejuni), Q9PIK7 (protein) MDVNLYGPGGPHTALKDIANKYSEKTGVKVNVNFGPQATWFEKAKKDADILFGASDQSALAIASDFGKDFNVSKIKPLYFREAIILTQKGNPLKIKGLKDLANKKVRIVVPEGAGKSNTSGTGVWEDMIGRTQDIKTIQNFRNNIVAFVPNSGSARKLFAQDQADAWITWIDWSKSNPDIGTAVAIEKDLVVYRTFNVIAKEGASKETQDFIAYLSSKEAKEIFKKYGWRE",glycan array binding signal (z-score),[1],0.074
same,glycan array binding signal (z-score),[2],-0.259
same,glycan array binding signal (z-score),[3],1.6
same,glycan array binding signal (z-score),[4],-0.183
same,glycan array binding signal (z-score),[5],-0.406
same,glycan array binding signal (z-score),[6],-0.151
same,glycan array binding signal (z-score),[7],-0.194
same,glycan array binding signal (z-score),[8],-0.082
same,glycan array binding signal (z-score),[9],-0.362
same,glycan array binding signal (z-score),[10],-0.301
same,glycan array binding signal (z-score),[11],-0.393
same,glycan array binding signal (z-score),[12],-0.33
same,glycan array binding signal (z-score),[13],-0.238
same,glycan array binding signal (z-score),[14],-0.127
same,glycan array binding signal (z-score),[15],-0.245
same,glycan array binding signal (z-score),[16],-0.263
same,glycan array binding signal (z-score),[17],-0.291
same,glycan array binding signal (z-score),[18],-0.08
same,glycan array binding signal (z-score),[19],-0.378
same,glycan array binding signal (z-score),[20],0.072
same,glycan array binding signal (z-score),[21],-0.183
same,glycan array binding signal (z-score),[22],-0.259
same,glycan array binding signal (z-score),[23],-0.313
same,glycan array binding signal (z-score),[24],-0.126
same,glycan array binding signal (z-score),[25],-0.22
same,glycan array binding signal (z-score),[26],-0.405
same,glycan array binding signal (z-score),[27],-0.154
same,glycan array binding signal (z-score),[28],-0.222
same,glycan array binding signal (z-score),[29],-0.137
same,glycan array binding signal (z-score),[30],-0.298
same,glycan array binding signal (z-score),[31],-0.226
same,glycan array binding signal (z-score),[32],0.057
same,glycan array binding signal (z-score),[33],-0.117
same,glycan array binding signal (z-score),[34],-0.379
same,glycan array binding signal (z-score),[35],-0.358
same,glycan array binding signal (z-score),[36],-0.4
same,glycan array binding signal (z-score),[37],-0.172
same,glycan array binding signal (z-score),[38],-0.441
same,glycan array binding signal (z-score),[39],-0.198
same,glycan array binding signal (z-score),[40],-0.401
same,glycan array binding signal (z-score),[41],0.015
same,glycan array binding signal (z-score),[42],-0.266
same,glycan array binding signal (z-score),[43],0.228
same,glycan array binding signal (z-score),[44],-0.378
same,glycan array binding signal (z-score),[45],-0.029
same,glycan array binding signal (z-score),[46],-0.111
same,glycan array binding signal (z-score),[47],0.096
same,glycan array binding signal (z-score),[48],0.313
same,glycan array binding signal (z-score),[49],-0.13
same,glycan array binding signal (z-score),[50],-0.163
same,glycan array binding signal (z-score),[51],-0.269
same,glycan array binding signal (z-score),[52],-0.258
same,glycan array binding signal (z-score),[53],-0.191
same,glycan array binding signal (z-score),[54],-0.332
same,glycan array binding signal (z-score),[55],0.234
same,glycan array binding signal (z-score),[56],-0.187
same,glycan array binding signal (z-score),[57],-0.089
same,glycan array binding signal (z-score),[58],1.25
same,glycan array binding signal (z-score),[59],0.096
same,glycan array binding signal (z-score),[60],0.05

# — the supplement of paper PMC8728848
